Here are results for five proteins from patent US20120252071A1 (ROCHE DIAGNOSTICS OPERATIONS, published 2012).

The data set deals with the molecule itself. The data set can be described thus: non-reducing SDS-PAGE; disulfide-linked self-association. As for the experimental part: Samples of T7 variants were prepared according to a procedure described in Example 4. T7 RNA polymerase and variants thereof were analyzed by gel electrophoresis on polyacrylamide gels containing sodium dodecylsulphate (SDS). Gradient gels (NuPAGE, 4-12%, Bis-Tris Gel, Invitrogen) were used. Typically, protein samples (0.26 mg/ml, 18 μl) were mixed with 6 μl of NuPAGE LDS (Lithium dodecyl sulfate; LDS may also be substituted by sodium dodecyl sulfate) sample buffer, (4×, Invitrogen). After heating for 2 min at 85° C., samples (20 μl) were applied on the gel. The total amount of protein in a single lane of the gel was between 1 μg and 3 μg. Gels were run in SDS Running Buffer (1×MES, Invitrogen) at 200 V for 1 hour.
Further, samples of wild-type T7 and T7 variants (0.2 to 0.3 mg/ml each) were incubated at 37° C. for 16 hours in 25 mM Tris/HCl, pH 7.5 (adjusted at 25° C.), 0.1 mM EDTA, 100 mM NaCl. Aliquots were removed and applied on the SDS gels under reducing conditions or under non-reducing conditions. After incubation a sample of each treated preparation was subjected to SDS polyacrylamide gel electrophoresis as described in Example 5. Results are depicted in FIG. 2 (reducing reagents absent) and FIG. 3 (10 mM DTT added).
With reference to FIG. 2 (reducing reagents absent), and in reference to Examples 5, 6, and 7, a stained SDS polyacrylamide gel is shown. The lanes designated M contain the Mark 12 size marker (Invitrogen). No reducing agent was added prior to electrophoresis. Lane 1: wild-type T7 RNA polymerase without His-tag; Lane 2: wild-type T7 RNA polymerase including His6-tag; Lane 3: T7 variant #8 [Cys125Ser, Cys347Ser, Cys492Ser, Cys515Ser, Cys723Ser, Cys839Ser] including His 6-tag; Lane 4: T7 variant #6 [Cys723Ser] including His6-tag; Lane 5: T7 variant #3 [Cys347Ser] including His6-tag; Lane 6: T7 variant #7 [Cys839Ser] including His6-tag; Lane 7: T7 variant #2 [Cys125Ser] including His6-tag; Lane 8: T7 variant #4 [Cys492Ser] including His6-tag; Lane 9: T7 variant #5 [Cys515Ser] including His6-tag; To varying extents homodimers and higher-order homomultimers can be seen in lanes 1, 2, 5, 6, 7, 8, and 9. Lanes 3 and 4 are detectably free of homodimers and/or homomultimers.

B1: T7 variant #2 [Cys125Ser] including His6-tag (enzyme)
chain: MNTINIAKNDFSDIELAAIPFNTLADHYGERLAREQLALEHESYEMGEARFRKMFERQLKAGEVADNAAAKPLITTLLPKMIARINDWFEEVKAKRGKRPTAFQFLQEIKPEAVAYITIKTTLASLTSADNTTVQAVASAIGRAIEDEARFGRIRDLEAKHFKKNVEEQLNKRVGHVYKKAFMQVVEADMLSKGLLGGEAWSSWHKEDSIHVGVRCIEMLIESTGMVSLHRQNAGVVGQDSETIELAPEYAEAIATRAGALAGISPMFQPCVVPPKPWTGITGGGYWANGRRPLALVRTHSKKALMRYEDVYMPEVYKAINIAQNTAWKINKKVLAVANVITKWKHCPVEDIPAIEREELPMKPEDIDMNPEALTAWKRAAAAVYRKDKARKSRRISLEFMLEQANKFANHKAIWFPYNMDWRGRVYAVSMFNPQGNDMTKGLLTLAKGKPIGKEGYYWLKIHGANCAGVDKVPFPERIKFIEENHENIMACAKSPLENTWWAEQDSPFCFLAFCFEYAGVQHHGLSYNCSLPLAFDGSCSGIQHFSAMLRDEVGGRAVNLLPSETVQDIYGIVAKKVNEILQADAINGTDNEVVTVTDENTGEISEKVKLGTKALAGQWLAYGVTRSVTKRSVMTLAYGSKEFGFRQQVLEDTIQPAIDSGKGLMFTQPNQAAGYMAKLIWESVSVTVVAAVEAMNWLKSAAKLLAAEVKDKKTGEILRKRCAVHWVTPDGFPVWQEYKKPIQTRLNLMFLGQFRLQPTINTNKDSEIDAHKQESGIAPNFVHSQDGSHLRKTVVWAHEKYGIESFALIHDSFGTIPADAANLFKAVRETMVDTYESCDVLADFYDQFADQLHESQLDKMPALPAKGNLNLRDILESDFAFA
notes: also called C125S; not shown: N-terminal His6-tag with linker
Take B1: the binding result was “binds”.

B2: T7 variant #7 [Cys839Ser] including His6-tag (enzyme)
chain: MNTINIAKNDFSDIELAAIPFNTLADHYGERLAREQLALEHESYEMGEARFRKMFERQLKAGEVADNAAAKPLITTLLPKMIARINDWFEEVKAKRGKRPTAFQFLQEIKPEAVAYITIKTTLACLTSADNTTVQAVASAIGRAIEDEARFGRIRDLEAKHFKKNVEEQLNKRVGHVYKKAFMQVVEADMLSKGLLGGEAWSSWHKEDSIHVGVRCIEMLIESTGMVSLHRQNAGVVGQDSETIELAPEYAEAIATRAGALAGISPMFQPCVVPPKPWTGITGGGYWANGRRPLALVRTHSKKALMRYEDVYMPEVYKAINIAQNTAWKINKKVLAVANVITKWKHCPVEDIPAIEREELPMKPEDIDMNPEALTAWKRAAAAVYRKDKARKSRRISLEFMLEQANKFANHKAIWFPYNMDWRGRVYAVSMFNPQGNDMTKGLLTLAKGKPIGKEGYYWLKIHGANCAGVDKVPFPERIKFIEENHENIMACAKSPLENTWWAEQDSPFCFLAFCFEYAGVQHHGLSYNCSLPLAFDGSCSGIQHFSAMLRDEVGGRAVNLLPSETVQDIYGIVAKKVNEILQADAINGTDNEVVTVTDENTGEISEKVKLGTKALAGQWLAYGVTRSVTKRSVMTLAYGSKEFGFRQQVLEDTIQPAIDSGKGLMFTQPNQAAGYMAKLIWESVSVTVVAAVEAMNWLKSAAKLLAAEVKDKKTGEILRKRCAVHWVTPDGFPVWQEYKKPIQTRLNLMFLGQFRLQPTINTNKDSEIDAHKQESGIAPNFVHSQDGSHLRKTVVWAHEKYGIESFALIHDSFGTIPADAANLFKAVRETMVDTYESSDVLADFYDQFADQLHESQLDKMPALPAKGNLNLRDILESDFAFA
notes: also called C839S; not shown: N-terminal His6-tag with linker
For B2, the binding result is on record as “binds”.

B3: T7 variant #4 [Cys492Ser] including His6-tag (enzyme)
chain: MNTINIAKNDFSDIELAAIPFNTLADHYGERLAREQLALEHESYEMGEARFRKMFERQLKAGEVADNAAAKPLITTLLPKMIARINDWFEEVKAKRGKRPTAFQFLQEIKPEAVAYITIKTTLACLTSADNTTVQAVASAIGRAIEDEARFGRIRDLEAKHFKKNVEEQLNKRVGHVYKKAFMQVVEADMLSKGLLGGEAWSSWHKEDSIHVGVRCIEMLIESTGMVSLHRQNAGVVGQDSETIELAPEYAEAIATRAGALAGISPMFQPCVVPPKPWTGITGGGYWANGRRPLALVRTHSKKALMRYEDVYMPEVYKAINIAQNTAWKINKKVLAVANVITKWKHCPVEDIPAIEREELPMKPEDIDMNPEALTAWKRAAAAVYRKDKARKSRRISLEFMLEQANKFANHKAIWFPYNMDWRGRVYAVSMFNPQGNDMTKGLLTLAKGKPIGKEGYYWLKIHGANCAGVDKVPFPERIKFIEENHENIMASAKSPLENTWWAEQDSPFCFLAFCFEYAGVQHHGLSYNCSLPLAFDGSCSGIQHFSAMLRDEVGGRAVNLLPSETVQDIYGIVAKKVNEILQADAINGTDNEVVTVTDENTGEISEKVKLGTKALAGQWLAYGVTRSVTKRSVMTLAYGSKEFGFRQQVLEDTIQPAIDSGKGLMFTQPNQAAGYMAKLIWESVSVTVVAAVEAMNWLKSAAKLLAAEVKDKKTGEILRKRCAVHWVTPDGFPVWQEYKKPIQTRLNLMFLGQFRLQPTINTNKDSEIDAHKQESGIAPNFVHSQDGSHLRKTVVWAHEKYGIESFALIHDSFGTIPADAANLFKAVRETMVDTYESCDVLADFYDQFADQLHESQLDKMPALPAKGNLNLRDILESDFAFA
notes: also called C492S; not shown: N-terminal His6-tag with linker
Turning to B3, the binding result is “binds”.

B4: T7 variant #5 [Cys515Ser] including His6-tag (enzyme)
chain: MNTINIAKNDFSDIELAAIPFNTLADHYGERLAREQLALEHESYEMGEARFRKMFERQLKAGEVADNAAAKPLITTLLPKMIARINDWFEEVKAKRGKRPTAFQFLQEIKPEAVAYITIKTTLACLTSADNTTVQAVASAIGRAIEDEARFGRIRDLEAKHFKKNVEEQLNKRVGHVYKKAFMQVVEADMLSKGLLGGEAWSSWHKEDSIHVGVRCIEMLIESTGMVSLHRQNAGVVGQDSETIELAPEYAEAIATRAGALAGISPMFQPCVVPPKPWTGITGGGYWANGRRPLALVRTHSKKALMRYEDVYMPEVYKAINIAQNTAWKINKKVLAVANVITKWKHCPVEDIPAIEREELPMKPEDIDMNPEALTAWKRAAAAVYRKDKARKSRRISLEFMLEQANKFANHKAIWFPYNMDWRGRVYAVSMFNPQGNDMTKGLLTLAKGKPIGKEGYYWLKIHGANCAGVDKVPFPERIKFIEENHENIMACAKSPLENTWWAEQDSPFCFLAFSFEYAGVQHHGLSYNCSLPLAFDGSCSGIQHFSAMLRDEVGGRAVNLLPSETVQDIYGIVAKKVNEILQADAINGTDNEVVTVTDENTGEISEKVKLGTKALAGQWLAYGVTRSVTKRSVMTLAYGSKEFGFRQQVLEDTIQPAIDSGKGLMFTQPNQAAGYMAKLIWESVSVTVVAAVEAMNWLKSAAKLLAAEVKDKKTGEILRKRCAVHWVTPDGFPVWQEYKKPIQTRLNLMFLGQFRLQPTINTNKDSEIDAHKQESGIAPNFVHSQDGSHLRKTVVWAHEKYGIESFALIHDSFGTIPADAANLFKAVRETMVDTYESCDVLADFYDQFADQLHESQLDKMPALPAKGNLNLRDILESDFAFA
notes: also called C515S; not shown: N-terminal His6-tag with linker
On to B4, for which the binding result is listed as “binds”.

B5: T7 variant #3 [Cys347Ser] including His6-tag (enzyme)
chain: MNTINIAKNDFSDIELAAIPFNTLADHYGERLAREQLALEHESYEMGEARFRKMFERQLKAGEVADNAAAKPLITTLLPKMIARINDWFEEVKAKRGKRPTAFQFLQEIKPEAVAYITIKTTLACLTSADNTTVQAVASAIGRAIEDEARFGRIRDLEAKHFKKNVEEQLNKRVGHVYKKAFMQVVEADMLSKGLLGGEAWSSWHKEDSIHVGVRCIEMLIESTGMVSLHRQNAGVVGQDSETIELAPEYAEAIATRAGALAGISPMFQPCVVPPKPWTGITGGGYWANGRRPLALVRTHSKKALMRYEDVYMPEVYKAINIAQNTAWKINKKVLAVANVITKWKHSPVEDIPAIEREELPMKPEDIDMNPEALTAWKRAAAAVYRKDKARKSRRISLEFMLEQANKFANHKAIWFPYNMDWRGRVYAVSMFNPQGNDMTKGLLTLAKGKPIGKEGYYWLKIHGANCAGVDKVPFPERIKFIEENHENIMACAKSPLENTWWAEQDSPFCFLAFCFEYAGVQHHGLSYNCSLPLAFDGSCSGIQHFSAMLRDEVGGRAVNLLPSETVQDIYGIVAKKVNEILQADAINGTDNEVVTVTDENTGEISEKVKLGTKALAGQWLAYGVTRSVTKRSVMTLAYGSKEFGFRQQVLEDTIQPAIDSGKGLMFTQPNQAAGYMAKLIWESVSVTVVAAVEAMNWLKSAAKLLAAEVKDKKTGEILRKRCAVHWVTPDGFPVWQEYKKPIQTRLNLMFLGQFRLQPTINTNKDSEIDAHKQESGIAPNFVHSQDGSHLRKTVVWAHEKYGIESFALIHDSFGTIPADAANLFKAVRETMVDTYESCDVLADFYDQFADQLHESQLDKMPALPAKGNLNLRDILESDFAFA
notes: also called C347S; not shown: N-terminal His6-tag with linker
For B5, the binding result was “binds”.
